This is one part of the list. Interaction screen of human proteins with wild-type SARS-CoV-2 proteins by split-DHFR complementation in yeast, 1 µg/mL methotrexate. Value = fitness of the pair (three or more lineages) minus that of the viral protein without a human partner, on a scale set by negative (0) and fused positive (1) controls, mean of up to three cultures; higher = more likely to interact. Active = false discovery rate below 0.05 (one-sided t-test) in at least one culture. Nearly all pairs are not hits, and differences among them are mostly noise (correlation between cultures about 0.3); most hits were seen in one culture only. Human sequences are the Swiss-Prot entries looked up by gene name; the clone may be another isoform. NSP2 values were corrected by the authors for a growth advantage. Listed are human proteins with a hit and a random twelfth of the others.
B1: WDR33, Q9C0J8 (protein)
chain: MATEIGSPPRFFHMPRFQHQAPRQLFYKRPDFAQQQAMQQLTFDGKRMRKAVNRKTIDYNPSVIKYLENRIWQRDQRDMRAIQPDAGYYNDLVPPIGMLNNPMNAVTTKFVRTSTNKVKCPVFVVRWTPEGRRLVTGASSGEFTLWNGLTFNFETILQAHDSPVRAMTWSHNDMWMLTADHGGYVKYWQSNMNNVKMFQAHKEAIREASFSPTDNKFATCSDDGTVRIWDFLRCHEERILRGHGADVKCVDWHPTKGLVVSGSKDSQQPIKFWDPKTGQSLATLHAHKNTVMEVKLNLNGNWLLTASRDHLCKLFDIRNLKEELQVFRGHKKEATAVAWHPVHEGLFASGGSDGSLLFWHVGVEKEVGGMEMAHEGMIWSLAWHPLGHILCSGSNDHTSKFWTRNRPGDKMRDRYNLNLLPGMSEDGVEYDDLEPNSLAVIPGMGIPEQLKLAMEQEQMGKDESNEIEMTIPGLDWGMEEVMQKDQKKVPQKKVPYAKPIPAQFQQAWMQNKVPIPAPNEVLNDRKEDIKLEEKKKTQAEIEQEMATLQYTNPQLLEQLKIERLAQKQVEQIQPPPSSGTPLLGPQPFPGQGPMSQIPQGFQQPHPSQQMPMNMAQMGPPGPQGQFRPPGPQGQMGPQGPPLHQGGGGPQGFMGPQGPQGPPQGLPRPQDMHGPQGMQRHPGPHGPLGPQGPPGPQGSSGPQGHMGPQGPPGPQGHIGPQGPPGPQGHLGPQGPPGTQGMQGPPGPRGMQGPPHPHGIQGGPGSQGIQGPVSQGPLMGLNPRGMQGPPGPRENQGPAPQGMIMGHPPQEMRGPHPPGGLLGHGPQEMRGPQEIRGMQGPPPQGSMLGPPQELRGPPGSQSQQGPPQGSLGPPPQGGMQGPPGPQGQQNPARGPHPSQGPIPFQQQKTPLLGDGPRAPFNQEGQSTGPPPLIPGLGQQGAQGRIPPLNPGQGPGPNKGDSRGPPNHHMGPMSERRHEQSGGPEHGPERGPFRGGQDCRGPPDRRGPHPDFPDDFSRPDDFHPDKRFGHRLREFEGRGGPLPQEEKWRRGGPGPPFPPDHREFSEGDGRGAARGPPGAWEGRRPGDERFPRDPEDPRFRGRREESFRRGAPPRHEGRAPPRGRDGFPGPEDFGPEENFDASEEAARGRDLRGRGRGTPRGGRKGLLPTPDEFPRFEGGRKPDSWDGNREPGPGHEHFRDTPRPDHPPHDGHSPASRERSSSLQGMDMASLPPRKRPWHDGPGTSEHREMEAPGGPSEDRGGKGRGGPGPAQRVPKSGRSSSLDGEHHDGYHRDEPFGGPPGSGTPSRGGRSGSNWGRGSNMNSGPPRRGASRGGGRGR
B2: TRIP4, Q15650 (protein)
chain: MAVAGAVSGEPLVHWCTQQLRKTFGLDVSEEIIQYVLSIESAEEIREYVTDLLQGNEGKKGQFIEELITKWQKNDQELISDPLQQCFKKDEILDGQKSGDHLKRGRKKGRNRQEVPAFTEPDTTAEVKTPFDLAKAQENSNSVKKKTKFVNLYTREGQDRLAVLLPGRHPCDCLGQKHKLINNCLICGRIVCEQEGSGPCLFCGTLVCTHEEQDILQRDSNKSQKLLKKLMSGVENSGKVDISTKDLLPHQELRIKSGLEKAIKHKDKLLEFDRTSIRRTQVIDDESDYFASDSNQWLSKLERETLQKREEELRELRHASRLSKKVTIDFAGRKILEEENSLAEYHSRLDETIQAIANGTLNQPLTKLDRSSEEPLGVLVNPNMYQSPPQWVDHTGAASQKKAFRSSGFGLEFNSFQHQLRIQDQEFQEGFDGGWCLSVHQPWASLLVRGIKRVEGRSWYTPHRGRLWIAATAKKPSPQEVSELQATYRLLRGKDVEFPNDYPSGCLLGCVDLIDCLSQKQFKEQFPDISQESDSPFVFICKNPQEMVVKFPIKGNPKIWKLDSKIHQGAKKGLMKQNKAV
B3: TRIM29, Q14134 (protein)
chain: MEAADASRSNGSSPEARDARSPSGPSGSLENGTKADGKDAKTTNGHGGEAAEGKSLGSALKPGEGRSALFAGNEWRRPIIQFVESGDDKNSNYFSMDSMEGKRSPYAGLQLGAAKKPPVTFAEKGELRKSIFSESRKPTVSIMEPGETRRNSYPRADTGLFSRSKSGSEEVLCDSCIGNKQKAVKSCLVCQASFCELHLKPHLEGAAFRDHQLLEPIRDFEARKCPVHGKTMELFCQTDQTCICYLCMFQEHKNHSTVTVEEAKAEKETELSLQKEQLQLKIIEIEDEAEKWQKEKDRIKSFTTNEKAILEQNFRDLVRDLEKQKEEVRAALEQREQDAVDQVKVIMDALDERAKVLHEDKQTREQLHSISDSVLFLQEFGALMSNYSLPPPLPTYHVLLEGEGLGQSLGNFKDDLLNVCMRHVEKMCKADLSRNFIERNHMENGGDHRYVNNYTNSFGGEWSAPDTMKRYSMYLTPKGGVRTSYQPSSPGRFTKETTQKNFNNLYGTKGNYTSRVWEYSSSIQNSDNDLPVVQGSSSFSLKGYPSLMRSQSPKAQPQTWKSGKQTMLSHYRPFYVNKGNGIGSNEAP

target: SARS-CoV-2 E; test: yeast fitness gain over the viral ORF with no human partner (scaled fitness); higher = more likely to interact
Experimental: (§1)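 Split mouse DHFR complementation in pooled diploid yeast: human ORFeome clones carry one fragment and viral ORFs the other; barcoded lineages compete in 1 µg/mL methotrexate and fitness is read by barcode sequencing in up to three cultures.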

Row | Binder | yeast fitness gain
1 | B1 | inactive: -0.211
2 | B2 | inactive: -0.329
3 | B3 | inactive: -0.0563

target: SARS-CoV-2 M; test: as above
Experimental: as §1

Row | Binder | yeast fitness gain
4 | B1 | inactive: 0.00736
5 | B2 | inactive: 0.0203
6 | B3 | inactive: -0.0885

target: SARS-CoV-2 N; test: as above
Experimental: as §1

Row | Binder | yeast fitness gain
7 | B1 | inactive: 0.0228
8 | B3 | inactive: 0.0515

target: SARS-CoV-2 NSP1; test: as above
Experimental: as §1

Row | Binder | yeast fitness gain
9 | B1 | inactive: 0.00377
10 | B2 | inactive: 0.0786
11 | B3 | inactive: -0.102

target: SARS-CoV-2 NSP10; test: as above
Experimental: as §1

Row | Binder | yeast fitness gain
12 | B1 | inactive: 0.0456
13 | B2 | inactive: 0.000979
14 | B3 | inactive: -0.0101

target: SARS-CoV-2 NSP12; test: as above
Experimental: as §1

Row | Binder | yeast fitness gain
15 | B1 | inactive: 0.0157
16 | B2 | inactive: 0.0706
17 | B3 | inactive: -0.0883

target: SARS-CoV-2 NSP13; test: as above
Experimental: as §1

Row | Binder | yeast fitness gain
18 | B1 | inactive: 0.0631
19 | B2 | inactive: 0.0623
20 | B3 | inactive: 0.00923

target: SARS-CoV-2 NSP14; test: as above
Experimental: as §1

Row | Binder | yeast fitness gain
21 | B1 | inactive: 0.0284
22 | B2 | inactive: 0.0355
23 | B3 | inactive: -0.0746

target: SARS-CoV-2 NSP15; test: as above
Experimental: as §1

Row | Binder | yeast fitness gain
24 | B1 | inactive: -0.0786
25 | B2 | inactive: 0.0291
26 | B3 | inactive: -0.0103

target: SARS-CoV-2 NSP16; test: as above
Experimental: as §1

Row | Binder | yeast fitness gain
27 | B1 | inactive: -0.134
28 | B2 | inactive: -0.00205
29 | B3 | inactive: -0.0607

target: SARS-CoV-2 NSP2; test: as above
Experimental: as §1

Row | Binder | yeast fitness gain
30 | B1 | inactive: -0.178
31 | B2 | inactive: -0.098
32 | B3 | inactive: -0.106

target: SARS-CoV-2 NSP4; test: as above
Experimental: as §1

Row | Binder | yeast fitness gain
33 | B1 | inactive: 0.0397
34 | B2 | inactive: 0.11

target: SARS-CoV-2 NSP5; test: as above
Experimental: as §1

Row | Binder | yeast fitness gain
35 | B1 | inactive: -0.0601
36 | B2 | inactive: 0.0276
37 | B3 | inactive: 0.0327

target: SARS-CoV-2 NSP6; test: as above
Experimental: as §1

Row | Binder | yeast fitness gain
38 | B1 | inactive: 0.135
39 | B2 | inactive: -0.0418
40 | B3 | inactive: -0.0629

target: SARS-CoV-2 NSP7; test: as above
Experimental: as §1

Row | Binder | yeast fitness gain
41 | B1 | inactive: 0.0158
42 | B2 | inactive: 0.0286
43 | B3 | inactive: -0.0725

target: SARS-CoV-2 NSP8; test: as above
Experimental: as §1

Row | Binder | yeast fitness gain
44 | B1 | inactive: 0.0204
45 | B2 | inactive: 0.0826
46 | B3 | inactive: -0.0262

target: SARS-CoV-2 NSP9; test: as above
Experimental: as §1

Row | Binder | yeast fitness gain
47 | B1 | inactive: 0.0511
48 | B2 | inactive: 0.00301
49 | B3 | inactive: -0.0902

target: SARS-CoV-2 ORF10; test: as above
Experimental: as §1

Row | Binder | yeast fitness gain
50 | B1 | inactive: 0.00745
51 | B2 | inactive: 0.00559
52 | B3 | inactive: 0.0582

target: SARS-CoV-2 ORF3A; test: as above
Experimental: as §1

Row | Binder | yeast fitness gain
53 | B1 | inactive: 0.00944
54 | B3 | inactive: 0.0544

target: SARS-CoV-2 ORF3B; test: as above
Experimental: as §1

Row | Binder | yeast fitness gain
55 | B1 | inactive: -0.00633
56 | B2 | inactive: 0.00286
57 | B3 | inactive: 0.00663

target: SARS-CoV-2 ORF6; test: as above
Experimental: as §1

Row | Binder | yeast fitness gain
58 | B1 | inactive: -0.00812
59 | B2 | inactive: -0.0571
60 | B3 | inactive: 0.0413

target: SARS-CoV-2 ORF7A; test: as above
Experimental: as §1

Row | Binder | yeast fitness gain
61 | B1 | inactive: 0.000619
62 | B2 | inactive: 0.0566
63 | B3 | inactive: -0.024

target: SARS-CoV-2 ORF7B; test: as above
Experimental: as §1

Row | Binder | yeast fitness gain
64 | B1 | inactive: -0.0201
65 | B2 | inactive: 0.0413
66 | B3 | inactive: 0.00963

target: SARS-CoV-2 ORF8; test: as above
Experimental: as §1

Row | Binder | yeast fitness gain
67 | B1 | inactive: -0.0145
68 | B2 | inactive: 0.0286
69 | B3 | inactive: -0.0214

target: SARS-CoV-2 ORF9B; test: as above
Experimental: as §1

Row | Binder | yeast fitness gain
70 | B1 | inactive: 0.0378
71 | B2 | inactive: -0.0106
72 | B3 | inactive: 0.0306

target: SARS-CoV-2 ORF9Bwu (the 73-codon ORF); test: as above
Experimental: as §1

Row | Binder | yeast fitness gain
73 | B1 | inactive: 0.00547
74 | B2 | inactive: -0.0564
75 | B3 | inactive: -0.115

target: SARS-CoV-2 S; test: as above
Experimental: as §1

Row | Binder | yeast fitness gain
76 | B1 | inactive: 0.106
77 | B2 | inactive: -0.00419
78 | B3 | inactive: -0.113
